Laboratory results from PubChem BioAssay (NCI).
Where “and” joins values, the source holds several entries; their conditions need not be identical. Equal entries are not always repeated.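 Each compound was tested at five concentrations against cells in 96-well plates for 48 hours. GI50: concentration for 50% inhibition of growth. TGI marks complete inhibition of growth.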

System: NCI-H322M lung
Assay: NCI anticancer screen, dose series, 48 h

| Structure (SMILES) | GI50 | TGI |
| --- | --- | --- |
| Cc1c(Cl)cccc1NC(=O)c1sc2nc3c(cc2c1N)CCCCCC3 | 0.331 µM | > 50 µM |
| O=C(c1ccc(NCN2C(=O)CCC2=O)cc1)c1ccc(NCN2C(=O)CCC2=O)cc1 |  | > 100 µM |
| C/C=C/[C@@H]1O[C@H](CC#C[Si](C)(C)C)[C@@]2(C=O)C(C)=CC[C@H](C(C)C)[C@@H]12 |  | > 100 µM |
| C#CC[C@H](c1nc2cc(Cl)ccc2c(=O)n1Nc1ccccc1)N(CCCN)C(=O)c1cccc(Cl)c1F | 0.328 µM | 12.8 µM |
| Cc1cc2c(c(C#N)c1C)NC(=O)C(CC(=O)O)C2=O (stereo not drawn) |  | > 100 µM |
| CC(=O)O/C(=C(/C#N)C(=O)O)C1C(C(=O)O)C(c2ccccc2[N+](=O)[O-])C=C(c2ccco2)N1c1ccncc1 (stereo not drawn) |  | 23.8 µM |
| COc1ccc(C(=O)c2cc(OC)c(OC)c(OC)c2)cc1O | 0.0622 µM | > 100 µM |
| Cc1c(CN2CCC(Nc3ncnc4sc(CC(F)(F)F)cc34)CC2)ccc2c1cc(C#N)n2Cc1cn[nH]c1 | 5.96 µM and 12.2 µM | 20.7 µM and > 38.8 µM |
| O=[N+]([O-])c1cc(Br)cc2c1[nH]c1ccc(Br)cc12 | 6.32 µM | > 100 µM |
| C=C1C(=O)O[C@@H]2C[C@@H](C)[C@@H]3[C@@H](OC4OC(COC(C)=O)C(O)C(O)C4O)CC(=O)[C@@]3(C)C[C@H]12 (stereo partly drawn) |  | 27.1 µM |
| COc1cc2cnc3c(c2cc1OC)Cc1cc2c(cc1-3)OCO2 | < 0.0166 µM | 26.1 µM |
| CC1(C)SC2C(NC(=O)Cc3ccccc3)C(=O)N2C1C(=O)O (stereo not drawn) |  | > 100 µM |
| Cc1ccc(NNc2cc(=O)[nH]c(=O)[nH]2)cc1Cl |  | > 100 µM |
| Cn1c2c(c3ccccc31)CC(=O)N1CCCCC1C21OCCO1 (stereo not drawn) |  | > 100 µM |
| O=C(Nc1ccncc1)C(=O)c1cn(S(=O)(=O)c2ccccc2F)c2ccccc12 | 24.2 µM | > 100 µM |
| CC(C)(C)OC(=O)/C=C/C(=O)O/C=C/[N+](=O)[O-] |  | > 100 µM |
| C(/C=N/NC1=NCCN1)=N\NC1=NCCN1 |  | > 100 µM |
| Cc1ccc(N2C(=O)CC(=O)N(NC(=O)C(C)Oc3ccccc3C)C2=S)cc1 (stereo not drawn) |  | > 100 µM |
| O=C(CN=C(CN(c1ccccc1)c1ccccc1)Oc1c([N+](=O)[O-])cc([N+](=O)[O-])cc1[N+](=O)[O-])N1CCNCC1 |  | > 100 µM |
| Cc1cc2c(C(N)=O)cccc2n1-c1nc2c(c(NCc3ccccc3)n1)CCCN2 | 0.288 µM | 0.798 µM |
| Cc1cc(S(N)(=O)=O)c(S/C(=N\Nc2ccc([N+](=O)[O-])cc2)c2ccc(Cl)cc2)cc1Cl |  | 4.34 µM |
| Cc1cc(N/N=C/c2nc(-c3ccccc3)oc2C)c2cc(Cl)ccc2n1 | 1.76 µM | 3.66 µM |
| Cc1nc(NC(=S)Nc2ccc(F)cc2)sc1C(=O)NNC(=S)Nc1ccc(F)cc1 | 19 µM | > 100 µM |
| O=C1C(Cl)=C(N2CCOCC2)C(=O)c2ccccc21 | 20.9 µM | 36.3 µM |
| O[C@]12CCCC[C@H]1CCC2 |  | > 100 µM |

| Structure (SMILES) | GI50 | TGI |
| --- | --- | --- |
| O=C(CNC(=O)c1cccc2ccccc12)Nc1ccccc1Oc1ccccc1 | 0.632 µM | > 10 µM |
| NC(=NC1CCCCCC1)c1ccc(N2CCN(c3ccc(C(N)=NC4CCCCCC4)cc3)CC2)cc1 | 20.4 µM | > 50 µM |
| O=Cc1[nH]c2ccccc2c1Br |  | > 100 µM |
| COc1ccc(/C=C2\CNC/C(=C\c3ccc(OC)cc3)C2=O)cc1 |  | > 100 µM |
| COC(=O)c1cc(C)ccc1CC(Cc1ccccc1C)C(=O)OC (stereo not drawn) |  | > 100 µM |
| Cc1cc2c(cc1Cl)Sc1nnc(C)n1S2(=O)=O |  | 55.2 µM |
| CCCC(=O)N[C@@H](Cc1cc(I)c(O)c(I)c1)C(=O)NCCCNCCCCNCCCNC(=O)[C@@H](N)CCCN=C(N)N |  | > 100 µM |
| C/C(=N/NC(=S)N(Cc1ccccn1)Cc1ccccn1)c1cnccn1 |  | 11.4 µM |
| CCCN(CCC)C(=O)Cc1c2n(c3ccccc13)Cc1ccccc1-2 |  | > 100 µM |
| O=C(c1ccc(Cl)cc1)N(C(=S)N1CCN(c2ccccc2)CC1)c1ccccc1 |  | > 100 µM |
| C=CC1(CBr)CCC(C(C)(C)Br)O1 (stereo not drawn) |  | 34.2 µM |
| COc1cc2c(OC)c(c1)CCCC1=CC(=O)C=C(CCC2)C1=O |  | > 100 µM |
| Cn1c(=O)c2[nH]c(COCc3nc4c([nH]3)c(=O)n(C)c(=O)n4C)nc2n(C)c1=O |  | > 100 µM |
| Cc1ccc(NC2=C(Sc3ccc(Cl)cc3)C(=O)N(Cc3ccccc3)C2=O)cc1Cl | 14 µM | 48.2 µM |
| C=CCN=C1N=C(CC(=O)OCC)CS1 |  | > 100 µM |
| CNC1NC(=O)c2ccccc2N1Cc1ccc(F)cc1 (stereo not drawn) |  | > 100 µM |
| Cc1cc2nc3c(C(O)CO)nn(-c4ccccc4)c3nc2cc1C (stereo not drawn) |  | 44.5 µM |
| CCOC(=O)CC[C@@H](NC(=O)c1ccc(NCc2ccc3nc(OC)c(OC)nc3c2)cc1)C(=O)OCC |  | > 100 µM |
| Cc1ccc(C(=O)N/N=C/c2cccc(Oc3ccccc3)c2)cn1 | > 62.2 µM | > 100 µM |
| CCc1ccc(CCC(=O)Nc2ncc(Cc3ccccc3)s2)o1 | 13.7 µM | > 100 µM |
| O=C(COC(=O)c1ccccc1)c1ccc(Br)cc1 |  | 27.5 µM |
| Cc1cc(S(=O)(=O)NC#N)c(S/C(=N\Nc2ccc([N+](=O)[O-])cc2)c2ccccc2)cc1Cl | 13.1 µM | 29 µM |
| c1ccc(-c2cc(-c3cc(-c4ccccc4)n[nH]3)[nH]n2)cc1 |  | > 100 µM |
| COc1cc(/C=C/C(=O)O)ccc1O |  | > 100 µM |
| CCOC(=O)C1(Cc2ccccc2)CCN(C(=O)c2ccccc2)C2C1C2(Cl)Cl (stereo not drawn) |  | 92.1 µM |

| Structure (SMILES) | GI50 | TGI |
| --- | --- | --- |
| OCC1CCCCN1Cc1nc2ccc(Cl)cc2[nH]1 (stereo not drawn) |  | > 100 µM |
| O=S(=O)(NC(c1ccccc1)(c1cc2ccccc2[nH]1)c1cc2ccccc2n1S(=O)(=O)c1ccccc1)c1ccccc1 (stereo not drawn) |  | > 100 µM |
| Cc1[nH]n(-c2nc(O)c(C)c(=O)[nH]2)c(=O)c1CCO |  | > 100 µM |
| COc1ncc(C#CC(=O)c2ccccc2OC)c(OC)n1 |  | 36.4 µM |
| CNC=O |  | > 10000 µM |
| Cc1ccc(NS(=O)(=O)c2cc(C)ccc2C)cc1 | 21.9 µM | > 100 µM |
| CC1OC(OC2C(Oc3cc(O)c4c(=O)cc(-c5ccc(O)cc5)oc4c3)OC(CO)C(O)C2O)C(O)C(O)C1O (stereo not drawn) |  | > 100 µM |
| O=[N+]([O-])c1cccc2nc3ccccc3c(NCCNCCO)c12 |  | 0.146 µM |
| CN(/N=N/c1nc(OCc2ccccc2)c2[nH]cnc2n1)C(=O)N(C)/N=N/c1nc(OCc2ccccc2)c2[nH]cnc2n1 | 41.3 µM | > 100 µM |
| CC(=O)OC[C@@H]1[C@H]2CC(=O)O[C@H]2C[C@H]1OC(C)=O |  | > 100 µM |
| CCc1oc2ccccc2c1C(=O)c1cc(Br)c(O)c(Br)c1 |  | 47.3 µM |
| CCOC(=O)/C=C/[C@H](O[Si](c1ccccc1)(c1ccccc1)c1ccccc1)C(C)(C)C |  | > 31.6 µM |
| COC[C@H]1OC(=O)c2coc3c2[C@@]1(C)C1=C(C3=O)[C@@H]2CCC(=O)[C@@]2(C)C[C@H]1OC(C)=O | 3.92 µM | > 100 µM |
| Nc1ncc(-c2ccc(C(F)(F)F)cc2)c(NC2CCCCCC2)n1 | > 100 µM | > 100 µM |
| O=C(O)c1ccc([N+](=O)[O-])c2c(=O)c3ccccc3[nH]c12 |  | > 100 µM |
| CSc1nc(-c2cc3c(c(SC)n2)CCC3)cc2c1CCC2 |  | > 100 µM |
| C#CCSc1cnc2ccccc2c1Sc1c[nH]c2ccccc2c1=O |  | > 100 µM |
| O=S(=O)(O)c1ccc(N=Nc2ccc(N=Nc3ccc(/C=C/c4ccc(N=[N+]([O-])c5ccc(/C=C/c6ccc(N=Nc7ccc(N=Nc8ccc(S(=O)(=O)O)cc8)c8ccccc78)cc6S(=O)(=O)O)c(S(=O)(=O)O)c5)cc4S(=O)(=O)O)c(S(=O)(=O)O)c3)c3ccccc23)cc1 |  | > 100 µM |
| COc1ccc(C2=C(c3cn(C)c4ccccc34)C(=O)NC2=O)cc1OC | > 25 µM | > 25 µM |
| CCOC(=O)c1ccc(Nc2nc3ccc(C(F)(F)F)cc3nc2-c2ccccc2)cc1 |  | > 100 µM |
| CCCCC(=O)[O-].N.N.N.N.N.[Co+3].[O-][Cl+3]([O-])([O-])[O-] | > 100 µM | > 100 µM |
| CC(C)(C)C(=O)C(c1ccc(-c2cscn2)cc1)c1ccc(-c2cscn2)cc1 |  | > 100 µM |
| Cn1c2ccccc2n2c3ccccc3c(=S)c(C#N)c12 |  | > 100 µM |
| CCS(=O)(=O)c1ccc(OC)c(Nc2nccc(N(C)c3ccc4c(C)[nH]nc4c3)n2)c1 | 7.73 µM | > 25 µM |
| C=C1CC(CNc2cc(Cl)nc(N)n2)C1 |  | > 100 µM |

| Structure (SMILES) | GI50 | TGI |
| --- | --- | --- |
| O=C(NCCCCNCCCNC(=O)C(F)(F)F)C(F)(F)F |  | > 100 µM |
| COc1cc(-c2cc(-c3nc4ccccc4[nH]3)[nH]n2)cc(OC)c1OC | 2.85 µM | 17.2 µM |
| C=CCC1(O)c2cccc(O)c2C(=O)c2cccc(O)c21 (stereo not drawn) |  | 96.7 µM |
| COc1ccc(CN=C2Nc3ccncc3S(=O)(=O)N2c2ccccc2)cc1 |  | > 100 µM |
| Cn1c2ccccc2c2nnc(N/N=C/c3ccccn3)nc21 | 0.332 µM | > 37.7 µM |
| O=C(O)c1cc2c(cc1S(=O)(=O)O)C1C(C3C2C2(Cl)C(Cl)=C(Cl)C3(Cl)C2(Cl)Cl)C2(Cl)C(Cl)=C(Cl)C1(Cl)C2(Cl)Cl (stereo not drawn) |  | 73.9 µM |
| CC1(C)N=C(N)N=C(N)N1c1cccc(CCCCc2ccc(S(=O)(=O)F)cc2Cl)c1 | 4.34 µM | > 41.6 µM |
| Cc1cccc(C)c1NC(=O)C(=O)CC(=O)CO |  | > 100 µM |
| Cc1cc(-c2nc3ccc(O)cc3s2)ccc1N | 39.6 µM | > 100 µM |
| O=C(/C(Cl)=C/c1ccccc1)c1ccccc1 |  | 30 µM |
| CCOP(=O)(OCC)C(Cc1ccccc1)N=C(c1ccccc1)c1ccccc1 (stereo not drawn) |  | 27.6 µM |
| N#Cc1nsnc1-c1nc(-c2nsnc2C#N)nc(-c2nsnc2C#N)n1 |  | > 100 µM |
| c1ccc2[nH]c(-c3ccc(OCCCCCOc4ccc(-c5nc6ccccc6[nH]5)cc4)cc3)nc2c1 | 3.72 µM | 15.6 µM |
| CCOC(=O)c1c(NC(=O)c2ccccc2)sc2c1CCC2 |  | > 100 µM |
| c1ccc2c(Cc3c[nH]c4ccccc34)c[nH]c2c1 |  | 30.6 µM |
| C=CCOc1ccc(C2c3c([nH][nH]c3=O)CC(C)(O)C2C(=O)OC)cc1OC (stereo not drawn) |  | > 100 µM |
| Cc1ccc(C2=Nc3ccccc3NC(=O)C2)cc1 |  | > 100 µM |
| C/C(=C1/N=C(c2cc([N+](=O)[O-])ccc2Cl)N(C2=CC=C(Cl)CC2)C1=O)c1cc2ccccc2oc1=O |  | > 100 µM |
| CCOC(=O)c1cc2cc(CSc3ccccc3)ccc2oc1=O |  | > 100 µM |
| CC(=O)O[C@@H]1CC(C)C2CC2C2=C(C(O)OC2O)[C@@H]1C(C)CCC=C(C)C (stereo partly drawn) |  | 67.6 µM |
| COc1ccc(/C=N/n2c(C)n[nH]c2=O)cc1 |  | > 100 µM |
| CC(C)(N=NC(C)(C)C1=NCCN1)C1=NCCN1 |  | > 100 µM |
| Clc1cc(Cl)cc(N2N=C(c3cccc(Nc4ccncc4)c3)CC2c2ccc(Br)cc2)c1 (stereo not drawn) | 1.53 µM | 2.9 µM |
